From the supplement of paper PMC10369915
The list shows a part of the results. Rule as the data show it: active = 3.2 or more and inactive = the rest. The signal is at background level for most entries.

target: SHP2 C-SH2 domain E139D; experiment: enrichment score (SH2-bound / input frequency) (ratio); bacterial display of known human phosphotyrosine sites (pTyr-Var adds point mutants) read by sequencing; higher = stronger binding; tyrosines were phosphorylated by kinases first; conditions: peptide library: pTyr-Var
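Also: displayed peptides selected on beads carrying the immobilized SH2 domain, with library peptides lacking any tyrosine serving as negative controls.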

Enrichment score, inactive:
YQKDVYDIPPS [NEDD9_Y177] 0.58
SHPSSYTTHPQ [NIPBL_Y195] 0.633
EVTLTYATGIK [NFKB1_Y485_T489I] 0.813
MTYVFYRENLR [NLRP14_Y443] 1.63
MFNPCYGLFEF [NEDD4L_Y680_Y679C_YF] 1.54
AGIENYKSRFG [NKD2_Y256_T257K] 0.765
MFNPCYGLFEY [NEDD4L_Y680_Y679C] 1.1
ARKRKYFKKHE [NFIX_Y40] 0.383
SEASFYKSLNL [NGEF_Y289_YF] 0.946
TRSYKCLLLSM [NF1_Y491_Y491C] 1.79
ERDTVYSSSGV [NELL2_Y350_N347D] 0.485
AKRKGYDMQVD [NEB_Y2770_R2773Q] 0.499
RSDSSYRMSAT [NHS_Y1532] 0.594
MTYMFYRENLR [NLRP14_Y443_V441M] 1.67
TSYSGYRCHRH [NKAPL_Y94_Y96C] 1.18
VSGIPYSQPKQ [NEU1_Y251_G252S] 0.477
GRDVIYKGFED [NFU1_Y194_G190R] 0.686
TSESSYFKSLN [NGEF_Y288_A286S_YF] 0.598
FSPGSNERETF [NF1_Y2192_Y2192N] 0.647

target: SHP2 C-SH2 domain wild-type; experiment: as above; conditions: peptide library: pTyr-Var

Enrichment score, inactive:
YQKDVYDIPPS [NEDD9_Y177] 0.617
SHPSSYTTHPQ [NIPBL_Y195] 0.449
EVTLTYATGIK [NFKB1_Y485_T489I] 0.873
MTYVFYRENLR [NLRP14_Y443] 1.36
MFNPCYGLFEF [NEDD4L_Y680_Y679C_YF] 1.18
AGIENYKSRFG [NKD2_Y256_T257K] 0.687
MFNPCYGLFEY [NEDD4L_Y680_Y679C] 1.04
ARKRKYFKKHE [NFIX_Y40] 0.438
SEASFYKSLNL [NGEF_Y289_YF] 1.03
TRSYKCLLLSM [NF1_Y491_Y491C] 1.66
ERDTVYSSSGV [NELL2_Y350_N347D] 0.567
AKRKGYDMQVD [NEB_Y2770_R2773Q] 0.501
RSDSSYRMSAT [NHS_Y1532] 0.491
MTYMFYRENLR [NLRP14_Y443_V441M] 1.13
TSYSGYRCHRH [NKAPL_Y94_Y96C] 0.987
VSGIPYSQPKQ [NEU1_Y251_G252S] 0.596
GRDVIYKGFED [NFU1_Y194_G190R] 0.67
TSESSYFKSLN [NGEF_Y288_A286S_YF] 0.538
FSPGSNERETF [NF1_Y2192_Y2192N] 0.617

target: SHP2 N-SH2 domain L43F; experiment: as above; conditions: peptide library: pTyr-Var

Enrichment score, inactive:
YQKDVYDIPPS [NEDD9_Y177] 0.703
SHPSSYTTHPQ [NIPBL_Y195] 0.399
EVTLTYATGIK [NFKB1_Y485_T489I] 0.839
MTYVFYRENLR [NLRP14_Y443] 1.68
MFNPCYGLFEF [NEDD4L_Y680_Y679C_YF] 1.21
AGIENYKSRFG [NKD2_Y256_T257K] 0.7
MFNPCYGLFEY [NEDD4L_Y680_Y679C] 1.17
ARKRKYFKKHE [NFIX_Y40] 0.291
SEASFYKSLNL [NGEF_Y289_YF] 0.84
TRSYKCLLLSM [NF1_Y491_Y491C] 1.45
ERDTVYSSSGV [NELL2_Y350_N347D] 0.481
AKRKGYDMQVD [NEB_Y2770_R2773Q] 0.726
RSDSSYRMSAT [NHS_Y1532] 0.532
MTYMFYRENLR [NLRP14_Y443_V441M] 1.37
TSYSGYRCHRH [NKAPL_Y94_Y96C] 0.913
VSGIPYSQPKQ [NEU1_Y251_G252S] 0.61
GRDVIYKGFED [NFU1_Y194_G190R] 0.601
TSESSYFKSLN [NGEF_Y288_A286S_YF] 0.596
FSPGSNERETF [NF1_Y2192_Y2192N] 0.566

target: SHP2 N-SH2 domain T42A; experiment: as above; conditions: peptide library: pTyr-Var

Enrichment score, inactive:
YQKDVYDIPPS [NEDD9_Y177] 0.572
SHPSSYTTHPQ [NIPBL_Y195] 0.451
EVTLTYATGIK [NFKB1_Y485_T489I] 0.714
MTYVFYRENLR [NLRP14_Y443] 1.53
MFNPCYGLFEF [NEDD4L_Y680_Y679C_YF] 1.26
AGIENYKSRFG [NKD2_Y256_T257K] 0.61
MFNPCYGLFEY [NEDD4L_Y680_Y679C] 1.06
ARKRKYFKKHE [NFIX_Y40] 0.571
SEASFYKSLNL [NGEF_Y289_YF] 0.827
TRSYKCLLLSM [NF1_Y491_Y491C] 1.55
ERDTVYSSSGV [NELL2_Y350_N347D] 0.518
AKRKGYDMQVD [NEB_Y2770_R2773Q] 0.403
RSDSSYRMSAT [NHS_Y1532] 0.443
MTYMFYRENLR [NLRP14_Y443_V441M] 1.32
TSYSGYRCHRH [NKAPL_Y94_Y96C] 0.905
VSGIPYSQPKQ [NEU1_Y251_G252S] 0.69
GRDVIYKGFED [NFU1_Y194_G190R] 0.621
TSESSYFKSLN [NGEF_Y288_A286S_YF] 0.631
FSPGSNERETF [NF1_Y2192_Y2192N] 0.547

target: SHP2 N-SH2 domain T52S; experiment: as above; conditions: peptide library: pTyr-Var

Enrichment score, inactive:
YQKDVYDIPPS [NEDD9_Y177] 0.586
SHPSSYTTHPQ [NIPBL_Y195] 0.533
EVTLTYATGIK [NFKB1_Y485_T489I] 0.722
MTYVFYRENLR [NLRP14_Y443] 1.67
MFNPCYGLFEF [NEDD4L_Y680_Y679C_YF] 1.16
AGIENYKSRFG [NKD2_Y256_T257K] 0.6
MFNPCYGLFEY [NEDD4L_Y680_Y679C] 1.03
ARKRKYFKKHE [NFIX_Y40] 0.429
SEASFYKSLNL [NGEF_Y289_YF] 0.735
TRSYKCLLLSM [NF1_Y491_Y491C] 1.93
ERDTVYSSSGV [NELL2_Y350_N347D] 0.586
AKRKGYDMQVD [NEB_Y2770_R2773Q] 0.477
RSDSSYRMSAT [NHS_Y1532] 0.517
MTYMFYRENLR [NLRP14_Y443_V441M] 1.46
TSYSGYRCHRH [NKAPL_Y94_Y96C] 1.15
VSGIPYSQPKQ [NEU1_Y251_G252S] 0.569
GRDVIYKGFED [NFU1_Y194_G190R] 0.758
TSESSYFKSLN [NGEF_Y288_A286S_YF] 0.534
FSPGSNERETF [NF1_Y2192_Y2192N] 0.569

target: SHP2 N-SH2 domain wild-type; experiment: as above; conditions: peptide library: pTyr-Var

Enrichment score, inactive:
YQKDVYDIPPS [NEDD9_Y177] 0.67
SHPSSYTTHPQ [NIPBL_Y195] 0.569
EVTLTYATGIK [NFKB1_Y485_T489I] 0.814
MTYVFYRENLR [NLRP14_Y443] 1.22
MFNPCYGLFEF [NEDD4L_Y680_Y679C_YF] 1.37
AGIENYKSRFG [NKD2_Y256_T257K] 0.663
MFNPCYGLFEY [NEDD4L_Y680_Y679C] 1.05
ARKRKYFKKHE [NFIX_Y40] 0.305
SEASFYKSLNL [NGEF_Y289_YF] 1.18
TRSYKCLLLSM [NF1_Y491_Y491C] 1.56
ERDTVYSSSGV [NELL2_Y350_N347D] 0.547
AKRKGYDMQVD [NEB_Y2770_R2773Q] 0.647
RSDSSYRMSAT [NHS_Y1532] 0.556
MTYMFYRENLR [NLRP14_Y443_V441M] 1.39
TSYSGYRCHRH [NKAPL_Y94_Y96C] 0.804
VSGIPYSQPKQ [NEU1_Y251_G252S] 0.89
GRDVIYKGFED [NFU1_Y194_G190R] 0.792
TSESSYFKSLN [NGEF_Y288_A286S_YF] 0.59
FSPGSNERETF [NF1_Y2192_Y2192N] 0.569
